We go through 93 compounds from PubChem BioAssay AID360 (National Center for Advancing Translational Sciences (NCATS), 2006).

The structures appear in SMILES notation. About 550 (1.1%) of roughly 48,000 compounds were called active. Inconclusive results (about 4%) are left out. Cut-off read from the data, not from the text of the source: active = potency below about 15 µM; inconclusive = mostly about 16 µM to 33 µM; inactive = weaker than that. The list shows a part of the results.
Potency is the fitted concentration of half-maximal effect.

UniProt P04062, sequence (P04062 whole entry, looked up): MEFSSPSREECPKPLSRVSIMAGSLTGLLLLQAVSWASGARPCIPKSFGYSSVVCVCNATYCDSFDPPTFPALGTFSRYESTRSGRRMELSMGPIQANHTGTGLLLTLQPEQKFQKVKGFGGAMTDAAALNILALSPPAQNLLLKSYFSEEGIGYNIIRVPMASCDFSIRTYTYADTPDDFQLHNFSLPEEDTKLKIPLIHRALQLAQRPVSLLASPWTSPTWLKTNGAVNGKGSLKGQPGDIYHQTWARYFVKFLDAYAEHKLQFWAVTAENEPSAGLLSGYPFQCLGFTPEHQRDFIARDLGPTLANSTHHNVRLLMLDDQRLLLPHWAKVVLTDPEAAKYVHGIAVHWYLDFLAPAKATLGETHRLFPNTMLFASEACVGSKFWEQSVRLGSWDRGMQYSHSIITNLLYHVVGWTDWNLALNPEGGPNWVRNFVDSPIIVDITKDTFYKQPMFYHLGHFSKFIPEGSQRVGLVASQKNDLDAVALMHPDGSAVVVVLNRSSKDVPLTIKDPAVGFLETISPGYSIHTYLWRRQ

This assay deals with Lysosomal acid glucosylceramidase (Homo sapiens) (UniProt P04062). The experiment in a line: Glucocerebrosidase.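 Note: the screen sought inhibitors.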 Particulars: purified enzyme, resorufin glucoside fluorescence (screen aimed at inhibitors), 20 min. In outline:
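Normal human glucocerebrosidase (0.2 nM final) was assayed with resorufin β-D-glucopyranoside (30 uM final) in 50mM citric acid/KH2PO4, 10mM sodium taurocholate, 0.01% tween-20, pH 5.9. Compounds were titrated; fluorescence (Ex 548, Em 600) read after 20 min at RT.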
Take `Cc1ccc(CS(=O)(=O)CCC(=O)NCCN2CCCCC2C)cc1` (stereo not drawn): the Potency is inactive: > 76.9 µM.

On to `CCCn1c(=O)c2ccccc2n2c(SCC(=O)NCc3cccs3)nnc12`, for which the Potency is inactive: > 76.9 µM. `Cc1ccc2c(c1)[nH]c1c(=O)n(CCN3CCCCC3)cnc12`: the Potency is inactive: > 76.9 µM. For the compound `Cc1ccc(-c2nnn(CC(=O)N3CCN(c4nc5ccccc5s4)CC3)n2)cc1`, the Potency is inactive: > 76.9 µM.

On to `Cc1cc(=O)[nH]c(SCCOc2ccc(OC(C)C)cc2)n1`, for which the Potency is inactive: > 76.9 µM. Next, `Cc1nn(C(=O)CCCC(=O)n2nc(C)c(Cl)c2C)c(C)c1Cl`: inactive: > 76.9 µM; `CCOC(=O)c1[nH]c2ccc(OCC)cc2c1NC(=O)CN1CCN(c2ccccc2)CC1`: inactive: > 76.9 µM. Next, `CCCCCn1c(CNC(C)=O)nc2ccccc21`: inactive: > 76.9 µM; `Cc1ccccc1-c1cc(-c2ccccc2O)n[nH]1`: inactive: > 15.4 µM. With `Cc1nc(Nc2ccc(S(N)(=O)=O)cc2)oc1C`, the Potency was inactive: > 76.9 µM. The figure for `CCOCCCNC(=O)Cc1ccc(OC)c(OC)c1` is inactive: > 76.9 µM. As to `CCOC(=O)c1c(NC(=O)CSc2nnnn2C)sc(C)c1-c1ccc(C)cc1`, the Potency is inactive: > 76.9 µM.

Take `CCN(CC)C(=O)Cc1cc(C(=O)O)c2ccccc2n1`: the Potency is inactive: > 76.9 µM. Turning to `Cc1ccc2[nH]c(=S)cc(C)c2c1`, the Potency was inactive: > 76.9 µM.

As for `Cc1nn(C(=O)c2cccnc2)c(C)c1C`, the Potency was inactive: > 76.9 µM. The figure for `Cc1cc(-c2nnc(SCC(=O)NC3CCCC3)o2)no1` is inactive: > 76.9 µM; for `Cn1c(=O)c2c(nc(NCCCO)n2Cc2cccc(Br)c2)n(C)c1=O` it is inactive: > 76.9 µM; for `O=C(COc1ccccc1)Nc1cccc(-c2nnc(-c3ccccc3)o2)c1` it is inactive: > 76.9 µM. As to `COc1cccc(OCCOc2c(OC)cccc2OC)c1`, the Potency is inactive: > 76.9 µM.

Take `CCc1cccc2c(=O)c(C(=O)NCCN3CCOCC3)c[nH]c12`: the Potency is inactive: > 76.9 µM. Next, `O=C(CCn1c(=O)c2ccccc2n(CC(=O)NCCC2=CCCCC2)c1=O)NCc1ccco1`: inactive: > 76.9 µM. Regarding `CSCC[C@H](NC(=O)OC(C)(C)C)C(=O)N1CCC(C(=O)N[C@H](C(=O)O)C(C)C)CC1`, the Potency is inactive: > 76.9 µM. For the compound `COc1cc(-c2nnc3sc(-c4ccccn4)nn23)cc(OC)c1OC`, the Potency was inactive: > 76.9 µM. The figure for `Cc1nc(-c2ccc(NC(=O)c3cccs3)cc2)cs1` is inactive: > 76.9 µM. Next, `COc1ccc(C2CC(c3ccc(Cl)cc3)Nc3nc(NC(=O)c4ccco4)nn32)cc1` (stereo not drawn): inactive: > 76.9 µM; `CC1=C(C(=O)OCc2ccc3c(c2)OCO3)C(c2ccc(F)cc2)NC(=O)N1` (stereo not drawn): inactive: > 76.9 µM. As for `CCC(=O)c1ccc(OCC(O)CN2CCN(c3cccc(C(F)(F)F)c3)CC2)cc1` (stereo not drawn), the Potency is inactive: > 76.9 µM.

For the compound `N#CCc1nc(CSc2nc3ccccc3o2)cs1`, the Potency is inactive: > 76.9 µM. Turning to `O=C(NCCN1CCOCC1)c1ccc2c(c1)N(Cc1ccccc1)C(=O)CS2`, the Potency entry is “inactive”. Next, `O=C(NCc1ccc2c(c1)OCO2)C1CCN(S(=O)(=O)c2cccc3nsnc23)CC1`: inactive: > 76.9 µM.

`CCN(CC)CCCN1C(=O)CSC1c1ccc2c(c1)OCO2` (stereo not drawn): the Potency is inactive: > 76.9 µM. For the compound `O=C(CCSCCC(=O)NCC1CCCO1)NCC1CCCO1` (stereo not drawn), the Potency was inactive: > 76.9 µM. On to `CCN(CC)CCCN1C(=O)C(=O)/C(=C(/O)c2ccc3c(c2)OCCO3)C1c1ccco1` (stereo not drawn), for which the Potency was inactive: > 76.9 µM.

`Cn1c(=O)c(=O)n(C)c2cc(S(=O)(=O)N3CCOCC3)ccc21`: the Potency is inactive: > 76.9 µM. Next, `O=C(Nc1cccc(Cl)c1N1CCCC1)c1ccc(Br)o1`: inactive: > 76.9 µM; `COc1ccc2c(-c3ccccc3)cc(N3CCOCC3)nc2c1`: inactive: > 76.9 µM; `Cc1ccc(C)c(NC(=O)c2nnn(Cc3ccccc3)c2N)c1`: inactive: > 76.9 µM. The figure for `CCOC(=O)N1CCN(C(=O)CCC(=O)N2CCOc3ccc(C)cc32)CC1` is inactive: > 76.9 µM. On to `CCn1c(SCC(=O)N2CCOCC2)nnc1-c1cccs1`, for which the Potency was inactive: > 76.9 µM. For `CC(=O)Nc1ccc(S(=O)(=O)N[C@H](C(=O)O)C(C)C)cc1`, the Potency is inactive: > 76.9 µM.

Regarding `CC(C)(C)NC(=O)CSc1nnc(Cc2ccc3c(c2)OCO3)n1C1CCCCC1`, the Potency is inactive: > 76.9 µM. Turning to `CCn1c(Cc2ccccc2)nnc1SCC(=O)Nc1ccc(S(N)(=O)=O)cc1`, the Potency is inactive: > 76.9 µM. For the compound `Nc1c(N2CCOCC2)cc(Cl)c2nonc12`, the Potency was inactive: > 76.9 µM. Take `O=C(CC(c1ccccc1)c1cc(Br)ccc1O)NCc1ccco1` (stereo not drawn): the Potency entry is “inactive”. On to `Cc1cccc(N2CCN(c3cc(C)nc4nnnn34)CC2C)c1` (stereo not drawn), for which the Potency is inactive: > 76.9 µM.

As for `COc1ccccc1N1CCN(C(=O)Nc2cccc(C)c2)CC1`, the Potency is inactive: > 76.9 µM.

On to `CC(=O)N1CC2(CC(=O)OC(C)C)CN(C(C)=O)CC(CC(=O)OC(C)C)(C1)C2=O`, for which the Potency is inactive: > 76.9 µM. Next, `CCCc1c(O)nc(SCC(=O)NCCc2ccc(OC)c(OC)c2)[nH]c1=O`: inactive: > 76.9 µM. Turning to `COC(=O)c1ccc(CSc2ncnc3sc(C)c(C)c23)o1`, the Potency was inactive: > 76.9 µM. The figure for `Cc1cccc(N(CC(=O)NC2CCCCC2)C(=O)c2c(C)noc2C)c1` is inactive: > 76.9 µM; for `Cc1nnc(NC(=O)C2COc3ccccc3O2)s1` (stereo not drawn) it is “inactive”; for `OC(COCc1cccs1)CN1CCCCCC1` (stereo not drawn) it is inactive: > 76.9 µM. With `COc1ccc(NC(=O)Cc2nn(C)c(=O)c3ccccc23)c2ncccc12`, the Potency is inactive: > 76.9 µM. Consider `COCCCNC(=O)C1CCN(S(=O)(=O)c2c(C)noc2/C=C\c2ccc(OC)cc2)CC1`, for which the Potency is inactive: > 76.9 µM. As for `O=C(COc1ncnc2ccccc12)NC1CCS(=O)(=O)C1` (stereo not drawn), the Potency was inactive: > 76.9 µM.

Regarding `COc1cc(C(=O)Nc2ccc3c(c2)C(=O)N(CCC(=O)O)C3=O)cc(OC)c1OC`, the Potency is inactive: > 76.9 µM. For the compound `C=CCn1cnc2c(NCc3ccccc3)ncnc21`, the Potency was inactive: > 76.9 µM.

With `COc1ccc(-c2nnc(SCC(=O)c3cc(C)n(Cc4cccs4)c3C)o2)cc1`, the Potency was inactive: > 76.9 µM. Take `CCOC(=O)C(NC(=O)CC)(Nc1cc(C)on1)C(F)(F)F` (stereo not drawn): the Potency was inactive: > 76.9 µM. The figure for `O=C1N2CCCc3cccc(c32)C12Nc1ccccc1S2` (stereo not drawn) is inactive: > 76.9 µM; for `COC(=O)COc1ccc(Oc2cc(C)nc(SC)n2)nn1` it is inactive: > 76.9 µM. The figure for `Cn1c(-c2ccc3ccccc3n2)nc2cnccc21` is inactive: > 76.9 µM. Next, `Cc1nnc(SCC(=O)NC(=O)NC(C)(C)C)n1N`: inactive: > 76.9 µM; `CC(=O)Nc1ccccc1N(C)S(=O)(=O)c1ccc(C)cc1`: inactive: > 76.9 µM; `Cn1nnnc1Sc1ncnc2scc(-c3ccccc3)c12`: inactive: > 76.9 µM. With `Cc1cc2ncn(-c3nnnn3-c3ccccc3)c2cc1C`, the Potency was inactive: > 76.9 µM. The figure for `O=C(Nc1ccc2oc(=O)ccc2c1)c1cccnc1` is inactive: > 76.9 µM. For the compound `Cc1nc2nc(C)c(CCC(=O)NCc3ccc4c(c3)OCO4)c(C)n2n1`, the Potency was inactive: > 76.9 µM. Next, `CCC(=O)NCCN1CCN(C(=O)CC)CC1`: inactive: > 76.9 µM; `CN(C)C(CNC(=O)CSc1nnc(-c2ccco2)o1)c1ccccc1` (stereo not drawn): inactive: > 76.9 µM; `COc1ccccc1-c1cc(C(=O)N2CCN(c3ccc(F)cc3)CC2)no1`: inactive: > 76.9 µM.

In the case of `O=C(CSc1nnc(-c2ccccn2)n1-c1ccccc1)Nc1ccc2c(c1)OCO2`, the Potency is inactive: > 76.9 µM. Next, `O=S(=O)(CCc1nc2ccccc2o1)c1ccc(Cl)cc1`: inactive: > 76.9 µM. Turning to `Cc1ccc(OCCCC(=O)Nc2nncs2)cc1`, the Potency is inactive: > 76.9 µM. Turning to `C1=C(c2cccc3ccccc23)N2CCN=C2S1`, the Potency is inactive: > 76.9 µM. In the case of `CNC(=O)c1ccccc1NC(=O)c1ccc(C)c(S(=O)(=O)N2CCCCC2)c1`, the Potency is inactive: > 76.9 µM. Next, `CCCC(=O)Nc1nc(C(=O)OCC)cs1`: inactive: > 76.9 µM. Take `CCOc1ccc(N(CC(=O)NCc2ccccc2OC)S(C)(=O)=O)cc1`: the Potency is inactive: > 76.9 µM. The figure for `CCOc1ccc(C(C)C)cc1S(=O)(=O)n1nc(C)cc1C` is inactive: > 76.9 µM; for `CCCCOc1ccc(CSc2nncn2N)cc1` it is inactive: > 76.9 µM. Next, `Cn1c(SCC(=O)N2CCCCC2)nnc1-c1ccc(S(=O)(=O)N2CCOCC2)cc1`: inactive: > 76.9 µM; `Cn1c(=O)oc2ccc(C(=O)CSc3nnnn3-c3ccccc3)cc21`: inactive: > 76.9 µM; `O=C(NCC(c1cccnc1)N1CCN(c2ccccc2)CC1)C1CCCCC1` (stereo not drawn): inactive: > 76.9 µM.

On to `COc1cc(S(=O)(=O)N2CCCCCC2)ccc1Cl`, for which the Potency was inactive: > 76.9 µM. `Cc1ccccc1-c1coc2cc(O)ccc2c1=O`: the Potency was inactive: > 76.9 µM.

For the compound `Cc1cc(NC(=O)c2cccc(S(=O)(=O)N3CCCCCC3)c2)n(-c2ccccn2)n1`, the Potency was inactive: > 76.9 µM. Next, `COC(=O)Cc1cc(=O)n(-c2ccccc2)[nH]1`: inactive: > 76.9 µM. `CCC1Oc2ccc(C)cc2N(CC(=O)NCc2cccc(OC)c2)C1=O` (stereo not drawn): the Potency is inactive: > 76.9 µM. The figure for `O=C(COc1cccc2ccccc12)N1CCN(c2ccccn2)CC1` is inactive: > 76.9 µM; for `CCC1(C)Cc2c(c(=O)n(-c3ccccc3)c3ncnc(N)c23)CO1` (stereo not drawn) it is inactive: > 76.9 µM. The figure for `Cn1c(=NC(=O)C2CCN(S(=O)(=O)c3cccs3)CC2)sc2ccccc21` is inactive: > 76.9 µM. Turning to `S=C(c1cccs1)N1CCCC1`, the Potency was inactive: > 76.9 µM. Next, `Cc1sc2nc3n(c(=O)c2c1C)NC(=O)CC3`: inactive: > 76.9 µM.
